{"source": "the supplement of paper PMC3334620", "note": "Over roughly 33,000 sequences, “E-score (-0.5 to 0.5)” has its median near -0.056; the highest 2% begin near 0.38. The list shows a part of the results.", "data": [{"target": "Stb4 (UniProt P50104)", "experiment": "PBM E-score (8-mer binding enrichment) (E-score (-0.5 to 0.5)); higher = stronger / more preferred TF binding; most listed sequences are background and not binding sites", "conditions": "protein concentration: 200 nM; construct: GST-DNA-binding domain", "in_short": "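GST-tagged yeast TFs (full-length or DNA-binding domain) were made by PURExpress in vitro transcription/translation and applied at about 100-200 nM to universal all-10-mer Agilent arrays. The arrays were made double-stranded by primer extension, on fresh or once-stripped slides. Bound protein was detected with fluorescent anti-GST, and scans were normalised with masliner. Each ungapped eight-base word, pooled with its reverse complement, received an E-score (modified Wilcoxon-Mann-Whitney statistic) from the Universal PBM Analysis Suite.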", "values": [{"sequence": "CAATTATC", "PBM E-score": 0.0951}, {"sequence": "CAGCGCCA", "PBM E-score": -0.234}, {"sequence": "GGCCGGCA", "PBM E-score": 0.313}, {"sequence": "TGACCACA", "PBM E-score": -0.218}, {"sequence": "CGATAGAG", "PBM E-score": -0.0674}, {"sequence": "CGCACTCA", "PBM E-score": 0.136}, {"sequence": "ATTCCAAA", "PBM E-score": -0.0736}, {"sequence": "AAACATAG", "PBM E-score": -0.15}, {"sequence": "ACTTCTAG", "PBM E-score": -0.191}, {"sequence": "CCATTGTC", "PBM E-score": -0.0328}, {"sequence": "AAGTGCGG", "PBM E-score": 0.226}, {"sequence": "ACATGTTC", "PBM E-score": -0.0431}, {"sequence": "GCCAGTAA", "PBM E-score": -0.103}, {"sequence": "ACAATAGA", "PBM E-score": -0.117}, {"sequence": "ATTGGGGG", "PBM E-score": -0.25}, {"sequence": "AGCCGTAG", "PBM E-score": 0.146}, {"sequence": "AATTGTGC", "PBM E-score": -0.0968}, {"sequence": "CGGCCGCC", "PBM E-score": 0.145}, {"sequence": "CCTATCGA", "PBM E-score": -0.272}, {"sequence": "CTCCCACC", "PBM E-score": -0.045}, {"sequence": "GAGGCCGA", "PBM E-score": 0.201}, {"sequence": "CGTCAGGC", "PBM E-score": -0.0155}, {"sequence": "GATGCCAA", "PBM E-score": -0.201}, {"sequence": "CGTGCTCA", "PBM E-score": 0.0362}, {"sequence": "CCACGACG", "PBM E-score": 0.0216}, {"sequence": "GCGTACGA", "PBM E-score": 0.0506}, {"sequence": "TAATAGGA", "PBM E-score": -0.0695}, {"sequence": "CGTCTAGA", "PBM E-score": -0.0657}, {"sequence": "ACTTTATG", "PBM E-score": -0.136}, {"sequence": "AAAGTGGG", "PBM E-score": -0.0324}, {"sequence": "AATTATAT", "PBM E-score": 0.107}, {"sequence": "AGAACAAA", "PBM E-score": 0.0832}, {"sequence": "CGCGCGAG", "PBM E-score": -0.0296}, {"sequence": "CAGCTAGC", "PBM E-score": -0.0222}, {"sequence": "CGGTTTAC", "PBM E-score": 0.147}, {"sequence": "CGATCTCC", "PBM E-score": 0.0879}, {"sequence": "TTTAGAAA", "PBM E-score": 0.0564}, {"sequence": "AGTCCTGA", "PBM E-score": -0.289}, {"sequence": "GCTCTATA", "PBM E-score": -0.0785}, {"sequence": "AATGGACT", "PBM E-score": -0.294}, {"sequence": "CTGACTGA", "PBM E-score": -0.239}, {"sequence": "CGGAACCG", "PBM E-score": 0.407}, {"sequence": "CGTAACCA", "PBM E-score": -0.0775}, {"sequence": "CCTTCCCC", "PBM E-score": 0.0472}, {"sequence": "ACACCAGA", "PBM E-score": -0.0626}, {"sequence": "CCAAGGGC", "PBM E-score": -0.173}, {"sequence": "AAACGTTA", "PBM E-score": -0.134}, {"sequence": "CACGAGAG", "PBM E-score": -0.136}, {"sequence": "AATGGGAT", "PBM E-score": -0.0469}, {"sequence": "CTAATCTC", "PBM E-score": -0.0453}, {"sequence": "TCAGCTAA", "PBM E-score": -0.276}, {"sequence": "GACCTGAA", "PBM E-score": 0.156}, {"sequence": "CGCATGTC", "PBM E-score": -0.102}, {"sequence": "GATACATA", "PBM E-score": 0.0345}, {"sequence": "CTGAGGCA", "PBM E-score": -0.124}, {"sequence": "AACGATAT", "PBM E-score": -0.0769}, {"sequence": "CGATGCGC", "PBM E-score": 0.0321}, {"sequence": "CGTAAAAG", "PBM E-score": -0.13}, {"sequence": "CAACTCAA", "PBM E-score": -0.0984}, {"sequence": "AAAATCCG", "PBM E-score": 0.316}, {"sequence": "ATACTATA", "PBM E-score": -0.167}, {"sequence": "AAAATCGA", "PBM E-score": -0.175}, {"sequence": "GCGTCTGA", "PBM E-score": -0.15}, {"sequence": "AACCGTGT", "PBM E-score": 0.12}, {"sequence": "AGTGCCGG", "PBM E-score": 0.301}, {"sequence": "GTTTGCCA", "PBM E-score": -0.0952}, {"sequence": "AAACCCAT", "PBM E-score": 0.0958}, {"sequence": "ACGAGACG", "PBM E-score": 0.0568}, {"sequence": "ATGATGGG", "PBM E-score": -0.114}, {"sequence": "GCGTCAAC", "PBM E-score": -0.169}, {"sequence": "AGCTTGAT", "PBM E-score": -0.25}, {"sequence": "CACTAAGC", "PBM E-score": -0.203}, {"sequence": "ATAGCAAG", "PBM E-score": 0.0135}, {"sequence": "CACGCAAG", "PBM E-score": -0.109}, {"sequence": "ACTGCACC", "PBM E-score": 0.0311}, {"sequence": "GTTAGTCA", "PBM E-score": -0.052}, {"sequence": "CGGGGACA", "PBM E-score": 0.193}, {"sequence": "TAGTCAAA", "PBM E-score": -0.144}, {"sequence": "CATTGAGC", "PBM E-score": -0.241}, {"sequence": "ACGGTCCT", "PBM E-score": -0.143}, {"sequence": "CGAAGAGC", "PBM E-score": 0.244}, {"sequence": "CGATCTTA", "PBM E-score": -0.0848}, {"sequence": "TTACGGAA", "PBM E-score": 0.365}, {"sequence": "CCGCGTAA", "PBM E-score": 0.0987}, {"sequence": "ATGCGCTA", "PBM E-score": -0.259}, {"sequence": "CTTAAGAC", "PBM E-score": -0.177}, {"sequence": "AGTTGCCC", "PBM E-score": -0.00828}, {"sequence": "GGGAAAAA", "PBM E-score": 0.241}, {"sequence": "AGCCCACC", "PBM E-score": 0.044}, {"sequence": "ACATTGAT", "PBM E-score": 0.0749}, {"sequence": "CGAGGAGA", "PBM E-score": -0.0149}, {"sequence": "ACAGCGCG", "PBM E-score": -0.0549}, {"sequence": "ATCTGTGC", "PBM E-score": -0.169}, {"sequence": "AGGAAGTC", "PBM E-score": -0.19}, {"sequence": "AAGGCAAG", "PBM E-score": -0.22}, {"sequence": "GCCCGACC", "PBM E-score": 0.168}, {"sequence": "AGTAATGA", "PBM E-score": -0.159}, {"sequence": "CGCGCCTC", "PBM E-score": 0.0642}, {"sequence": "AGTAGATA", "PBM E-score": -0.0337}, {"sequence": "AAGTCAGT", "PBM E-score": 0.0161}, {"sequence": "ACACCAAA", "PBM E-score": -0.0937}, {"sequence": "GCTGGAAC", "PBM E-score": -0.0614}, {"sequence": "GCACGTGC", "PBM E-score": -0.0618}, {"sequence": "CGGATTCC", "PBM E-score": 0.359}, {"sequence": "AGGTAACC", "PBM E-score": -0.0271}, {"sequence": "GAGGGCGA", "PBM E-score": -0.114}, {"sequence": "CTGATTCC", "PBM E-score": 0.014}, {"sequence": "CAGAGGTC", "PBM E-score": -0.194}, {"sequence": "CACGCCAC", "PBM E-score": -0.205}, {"sequence": "AAGCACGA", "PBM E-score": -0.0932}, {"sequence": "AAAACAAA", "PBM E-score": 0.113}, {"sequence": "CGTCACGC", "PBM E-score": -0.0645}, {"sequence": "CCCGATCC", "PBM E-score": 0.313}, {"sequence": "GCATTTAC", "PBM E-score": -0.0832}, {"sequence": "AATAGTTG", "PBM E-score": -0.0512}, {"sequence": "CCAAACGC", "PBM E-score": -0.135}, {"sequence": "TGGGTAAA", "PBM E-score": -0.0511}, {"sequence": "ACGTTGTG", "PBM E-score": -0.168}, {"sequence": "CGGCGACA", "PBM E-score": 0.124}, {"sequence": "AATGGGAG", "PBM E-score": -0.215}, {"sequence": "GACTCCGA", "PBM E-score": 0.321}, {"sequence": "GAGAAATC", "PBM E-score": 0.0628}, {"sequence": "ACGTCTCC", "PBM E-score": -0.125}, {"sequence": "ATCTTTGA", "PBM E-score": -0.104}, {"sequence": "GCCGACAA", "PBM E-score": 0.299}, {"sequence": "AAGCCCGT", "PBM E-score": -0.0399}, {"sequence": "GTCTTGAA", "PBM E-score": 0.0554}, {"sequence": "AAGACTAG", "PBM E-score": -0.209}, {"sequence": "CTTCAGCA", "PBM E-score": -0.285}, {"sequence": "TAAAAACA", "PBM E-score": -0.0863}, {"sequence": "ACCCGATG", "PBM E-score": 0.399}, {"sequence": "GCACAGCC", "PBM E-score": 0.141}, {"sequence": "GTTCCAAA", "PBM E-score": -0.0427}, {"sequence": "CTAGGGTA", "PBM E-score": -0.143}, {"sequence": "ACCTCGAC", "PBM E-score": -0.156}, {"sequence": "AATAGCAG", "PBM E-score": -0.2}, {"sequence": "AATCGGTG", "PBM E-score": -0.0308}, {"sequence": "ATTCTATC", "PBM E-score": -0.168}, {"sequence": "AGGACACC", "PBM E-score": -0.0973}, {"sequence": "GATCATGC", "PBM E-score": 0.0103}, {"sequence": "AGGTGGGA", "PBM E-score": -0.168}, {"sequence": "AATAAACA", "PBM E-score": 0.00831}, {"sequence": "ACCGCTGA", "PBM E-score": -0.167}, {"sequence": "GGCATATA", "PBM E-score": 0.141}, {"sequence": "GCACCTTA", "PBM E-score": -0.163}, {"sequence": "CAGGATTC", "PBM E-score": -0.0796}, {"sequence": "CGCGAAGC", "PBM E-score": 0.103}, {"sequence": "CGATCACG", "PBM E-score": 0.0774}, {"sequence": "CGGCCACG", "PBM E-score": -0.024}, {"sequence": "ACAGTCTC", "PBM E-score": -0.148}, {"sequence": "AGCGCAGG", "PBM E-score": -0.0828}, {"sequence": "ACTTAGAG", "PBM E-score": -0.281}, {"sequence": "CGGACTAC", "PBM E-score": 0.154}, {"sequence": "CAGCAGGC", "PBM E-score": 0.00903}, {"sequence": "AGCCGGTG", "PBM E-score": 0.226}, {"sequence": "CTCGCAGA", "PBM E-score": -0.261}, {"sequence": "ATCCTACC", "PBM E-score": 0.04}, {"sequence": "ACGTCCAT", "PBM E-score": -0.199}, {"sequence": "GAGGGTAC", "PBM E-score": -0.235}, {"sequence": "AGGTGATC", "PBM E-score": -0.159}, {"sequence": "GGAATTGA", "PBM E-score": 0.135}, {"sequence": "ACTAATGA", "PBM E-score": -0.0311}, {"sequence": "GGGTTACA", "PBM E-score": 0.0753}, {"sequence": "ACGTATTA", "PBM E-score": 0.0772}, {"sequence": "CACTCGTA", "PBM E-score": -0.292}, {"sequence": "TCCGCTCA", "PBM E-score": 0.0169}, {"sequence": "ATTGAAAC", "PBM E-score": -0.16}, {"sequence": "CCCAGTCA", "PBM E-score": -0.282}, {"sequence": "CCGGATCC", "PBM E-score": 0.395}, {"sequence": "ACCTGAAA", "PBM E-score": -0.0945}, {"sequence": "AAGGGAGC", "PBM E-score": -0.0979}, {"sequence": "ACTTCCGG", "PBM E-score": 0.411}]}]}
